# This is one part of the list.
# Test system: PfHDP1 homeodomain (GST-tagged)
# Assay: gcPBM binding intensity (ln(normalized median fluorescence intensity)); higher = stronger DNA binding
# How it was run: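 Binding intensity is the highest Masliner-normalised natural-log median intensity over replicate spots in either probe orientation. To obtain it, GST-tagged P. falciparum DNA-binding domains made in E. coli were incubated for 1 h on an Agilent 4 × 180k array of primer-extended double-stranded 36-bp intergenic genomic probes plus negative controls. Detection used Alexa488 anti-GST antibody with scanning at 488 nm.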
row,Sequence,gcPBM binding intensity (ln)
1,AATTTTTTTTTCTTTTGTACGTAAATATGTGTAGGC [XGTACX_site215],6.8
2,CTAATAAAAAAAAAAAGTACATATGACAATATAAAG [XGTACX_site1598],6.79
3,TTAAAATGAAGAAGTGCACACATATATATATTTATA [CACACA_site8063],9.14
4,TTAACACATTTTATGTGTACTCATATGATTTAAAAT [XGTACX_site7516],6.56
5,TATAAACAGACGAAAACACACATATGTAGATATATA [CACACA_site6371],7.13
6,TATATATTAGTGTTGACACACACAAAAAAAAAAAAA [CACACA_site8392],6.43
7,TATATATATATAATAGCATGCTATATTATATATATA [TGCATGCA_site886],8.41
8,TATTCTTATTATTACACACACAATTATATTTACCCC [CACACA_site6381],7.35
9,TTAACATAAATTGTGTCATTTTTTTTTTTTTTTTTA [CACACA_negctrl_site1221],5.81
10,TATTTTTTAATTGTTTCACACATTATTTTTTACATA [CACACA_site6078],6.41
11,ATAATATATATATATATGTATGTATATATGTATGTA [GTGCAC_negctrl_site575],6.49
12,ATGAACATGTGACAATGTACATTTATATCTTAAGAA [XGTACX_site4960],6.73
13,TACACCCAGAAATGCACACACATATATATATATATA [CACACA_site5289],10.3
14,TATTCATGCATATACACACACATATATATATATTTT [CACACA_site3955],7.44
15,AATGAAAAATTGTAATGTACATAAATAAATAAATAA [XGTACX_site4048],6.94
16,ATCATAATTTATTATACACACAATACGTGACCTATT [CACACA_site6977],6.79
17,AAAAAAAAATTAAACATACACACGTTACTATTTTTA [CACACA_site1687],6.29
18,TTTTATATAAATATCACACACACACGCATGTTTTAA [CACACA_site6187],6.71
19,TACAATATACCTACTTGTACACAAAATAAAAGTAGT [XGTACX_site6029],6.3
20,TACACACCTAACTATGCATGCATCAATATAGTGGAT [TGCATGCA_site443],6.55
21,AAAAAAAGTAAAAAGTGTACTTAATATATATATATA [XGTACX_site838],9.15
22,TGTAGCATTTAATTCACACATAAAAAATGTATCCAT [CACACA_site4986],6.5

row,Sequence,gcPBM binding intensity (ln)
1,TATATGTGATAACACGCACACAAATGTATATAATTT [CACACA_site2593],6.97
2,ATAAAATAAAAATTCTGTACAGAATTAAAAAAATAT [XGTACX_site6961],6.7
3,AAAAAAAAAAAACATACACACATTGAACTTTTATAT [CACACA_site3250],6.42
4,TATTAATTTATTTGTTGTACGTAAATATGCTTGTTT [XGTACX_site6591],6.36
5,AAAAAAAAAAAAAATTGTACCCAAATATTTTTGTAG [XGTACX_site8303],6.15
6,ATATATATATTTAAGGTGCGATTTTGTTATATTTAA,7.89
7,TTTTTATTAGGACATGCATACAAAATTAAAAAAAAT [TGCATGCA_site258],6.76
8,CTTATTTTATGTTATACACACAAAGAAAAAAAATAA [CACACA_site2165],6.74
9,TTATGTATATTATAAATTAATACATTTAAATTAATA [CACACA_negctrl_site34],5.93
10,TTATTAAAATATTAAAGTACAAAAAAAATAAATAAA [XGTACX_site6507],6.47
11,GTATATAATTTATGTGCACACACTCCTATTTTTAGC [CACACA_site49],11.1
12,AATTATATTAATATATAATAAAATAGGATGTTATTT [XGTACX_negctrl_site309],6.13
13,TAACACTTTTTTTTTCGTACATATATTATATATATA [XGTACX_site5470],6.98
14,AAATAGACATAAAAAGGTACACAAATTGTGTATTAA [XGTACX_site527],7.23
15,TTTTTTTATATTATACGCACTAATATATATATATAT [XGTACX_negctrl_site40],8.78
16,GACATATATAGCAATCGTACATATATTATAAAAGGT [XGTACX_site6891],7.57
17,TTTAATTTTCCCTTCACACATAATATATATCTGTAT [CACACA_site5370],6.95
18,CGTTTGGTACACGTAGTGTTTTCGTTTGAATGTACC [GTGCAC_negctrl_site201],6.39
19,AAAAGGAACAGACACACACACATATATAAATATGTA [CACACA_site7656],6.72
20,TTTAAATATTTTATAGCATGCTACCAATATGTATAT [TGCATGCA_site291],6.89
21,AAGAACAAACAAAATAGTACAATATATATATATATA [XGTACX_site4258],9.12
22,CATATATAGATATATACACACATATAGATTTTCTTT [CACACA_site6797],6.52

row,Sequence,gcPBM binding intensity (ln)
1,TATTCATAACAATGATGTACATATATTTTTTTTTTC [XGTACX_site5619],6.47
2,AACTATAATTAAAGGATGCACTTGAAGGCATTTCAA [GTGCAC_site9689],6.72
3,TTACTTGTTTATTTTTTTTTTTTTTTTTTTTTTGTT [TGCATGCA_negctrl_site103],5.62
4,TAATGGAGAAAATAATGTACTTAGATATTTGTTCTA [XGTACX_site6312],6.01
5,AAAAATTAGAAACACACACACATATATATATATATT [CACACA_site1042],6.74
6,TCAAATGTATATAATTGTACTTATCCTTTTCATTTT [XGTACX_site4879],6.31
7,TTTTAAGTTTTTGAATGTACGTAATTTGTAAATTCT [XGTACX_site2448],5.98
8,AAAAAAAAAAAAAAAAAAAAAAAAAAAGATTATGAG [CACACA_negctrl_site1088],7.13
9,TATAAAATACTGTATCGATGGGGGAGGGCGCAGGGG [TGCATGCA_negctrl_site250],7.4
10,TACAATATTTTGAGACGTACATATATACATTTACAT [XGTACX_site5880],6.51
11,AAATTAAAATAAAAATGTACATATAAAGACACAACT [XGTACX_site3132],7.3
12,CTTACCAAAAGACACACACACACAAGATATATAAAT [CACACA_site6964],6.87
13,TATATATATATACCAACACACATACAGATATATATA [CACACA_site5060],9.03
14,TTTATATACAAAAATGCACACGAAAAGTAATATATA [CACACA_site9387],9.27
15,TGTAAGTCGTTATAAGCACACACATAAATAAAAATA [CACACA_site8448],6.96
16,TGAACTTACTTGGACATACACACATATATATATATA [CACACA_site2977],9.3
17,AAATTTTAAATAGTATGTACGTATGAAATATATATG [XGTACX_site7511],7.24
18,ACCCATTTAACAAAATGTACATTATTATAATTACTT [XGTACX_site7105],6.79
19,ATTTAAATACAAAATTGTACTTTTCTATATTTAACA [XGTACX_site6146],6.39
20,TTTGGAAAAAAATTATTTAAACGATATGAATTGATG [XGTACX_negctrl_site506],6.3
21,AAAATTTTACAGAAGGTGCGTATATTTTCCTGCTTA [GTGCAC_site9643],6.5
22,ATGTAGATAAAACGTGTGCACATGTTTTTTGTTATT,10.4

row,Sequence,gcPBM binding intensity (ln)
1,CACAGTGATATAAAAACACACATGAATTATAATTTC [CACACA_site1667],6.16
2,TTTTGTTATGGTTTGATGCACTTATATATAAATATT [GTGCAC_site9705],7.96
3,ATATATATATATATATGTACTTATTACCAATGTTAG [XGTACX_site1896],9.47
4,AAGCCCATTATTAAATGTACAAAATTTTATAAACTA [XGTACX_site7800],6.62
5,TATAGGTATTTATATACACACATATTCTTTTTACAC [CACACA_site6686],6.72
6,GTATATATGTATATATGTACATATATATAATATATT [XGTACX_site56],6.57
7,TAAAACATATATACAAGTACACAAAGGATATATATA [XGTACX_site3710],6.63
8,CAGTGCCAAATTAGCACACACATATATACATGAATT [CACACA_site2814],7.16
9,AAAAAATACCTCTATAGTACATATATATAATATTTA [XGTACX_site7222],6.18
10,AAAAAAAATTTATTTGCATGCAAAAAAAAAAAAAAA [TGCATGCA_site67],6.79
11,TAATTATGTATGAACTGTACAGGTTATTTTATTTTA [XGTACX_site5204],6.31
12,TAAAATTTAAATTATACACACTTAAGTAACATCATC [CACACA_site4450],6.9
13,CTACTTATAAATAGAACACACATAAGTGTATTTGTA [CACACA_site3759],6.33
14,AATCATCTCATAAAAATTAATTAGTGTATGTCTTTT [TGCATGCA_negctrl_site416],6.19
15,AAAACAATATACTGTAGTACTGATGATATATATATA [XGTACX_site7798],8.67
16,TCTTAAATATATAAATTGAAAAATATAAAAGTAATA [CACACA_negctrl_site1558],6.17
17,ACAATATAGATTAAAAGTACAAATAGTAAATTATAT [XGTACX_site3165],6.28
18,ATAAAAAAAAATAGCACACATAAATATATTATATAT [CACACA_site767],7.08
19,TCTTGTTAATATATTAAATATATCTATAAATATATA [XGTACX_negctrl_site486],6.55
20,TATATACATACATATACACACATATATATATATATA [CACACA_site401],9.33
21,TCATATTCCAAGTGTACACATAAATCCCTAATAACA [CACACA_site5167],7.19
22,GTATAAAATATTGATTGTACTTTATTCATTTTTTTT [XGTACX_site2520],5.92

# Source: the supplement of paper PMC11417369
